# Measurements: the supplement of paper PMC8728848
# Some of the results follow.
# Key:
# Experiment in all cases: glycan array binding signal (z-score within array); higher = stronger binding
# Settings in all cases: glycan notation: IUPAC condensed, linker removed
# [1] = molecular target: Gal(b1-4)GlcNAc(b1-3)Gal(b1-4)GlcNAc(b1-3)Gal(b1-4)GlcNAc(b1-2)Man(a1-3)[Gal(b1-4)GlcNAc(b1-3)Gal(b1-4)GlcNAc(b1-3)Gal(b1-4)GlcNAc(b1-2)Man(a1-6)]Man(b1-4)GlcNAc(b1-4)GlcNAc
# Summary of the method: (§1)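 Arrays were curated from the Consortium for Functional Glycomics database, 3228 in total, and kept only where the protein sequence was available. Binding is expressed as a within-array Z-score. This score was averaged across arrays of the same protein sequence at different concentrations or buffers and across linkers, and negative values can be read as non-binding.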
# [2] = molecular target: Gal(b1-4)GlcNAc(b1-3)Gal(b1-4)GlcNAc(b1-3)Gal(b1-4)GlcNAc(b1-2)Man(a1-3)[Gal(b1-4)GlcNAc(b1-3)Gal(b1-4)GlcNAc(b1-3)Gal(b1-4)GlcNAc(b1-2)Man(a1-6)]Man(b1-4)GlcNAc(b1-4)[Fuc(a1-6)]GlcNAc
# Summary of the method: as §1
# [3] = molecular target: Gal(b1-4)GlcNAc(b1-3)Gal(b1-4)GlcNAc(b1-3)Gal(b1-4)GlcNAc(b1-2)[Gal(b1-4)GlcNAc(b1-3)Gal(b1-4)GlcNAc(b1-3)Gal(b1-4)GlcNAc(b1-6)]Man(a1-6)[Gal(b1-4)GlcNAc(b1-3)Gal(b1-4)GlcNAc(b1-3)Gal(b1-4)GlcNAc(b1-2)Man(a1-3)]Man(b1-4)GlcNAc(b1-4)[Fuc(a1-6)]GlcNAc
# Summary of the method: as §1
# [4] = molecular target: Gal(b1-4)GlcNAc(b1-3)Gal(b1-4)GlcNAc(b1-3)Gal(b1-4)GlcNAc(b1-3)Gal(b1-4)GlcNAc(b1-2)Man(a1-3)[Gal(b1-4)GlcNAc(b1-3)Gal(b1-4)GlcNAc(b1-3)Gal(b1-4)GlcNAc(b1-3)Gal(b1-4)GlcNAc(b1-2)Man(a1-6)]Man(b1-4)GlcNAc(b1-4)GlcNAc
# Summary of the method: as §1
# [5] = molecular target: Gal(b1-4)GlcNAc(b1-3)Gal(b1-4)GlcNAc(b1-3)Gal(b1-4)GlcNAc(b1-3)Gal(b1-4)GlcNAc(b1-2)Man(a1-3)[Gal(b1-4)GlcNAc(b1-3)Gal(b1-4)GlcNAc(b1-3)Gal(b1-4)GlcNAc(b1-3)Gal(b1-4)GlcNAc(b1-2)Man(a1-6)]Man(b1-4)GlcNAc(b1-4)[Fuc(a1-6)]GlcNAc
# Summary of the method: as §1
# [6] = molecular target: Gal(b1-4)GlcNAc(b1-3)Gal(b1-4)GlcNAc(b1-3)Gal(b1-4)GlcNAc(b1-3)Gal(b1-4)GlcNAc(b1-2)[Gal(b1-4)GlcNAc(b1-3)Gal(b1-4)GlcNAc(b1-3)Gal(b1-4)GlcNAc(b1-3)Gal(b1-4)GlcNAc(b1-6)]Man(a1-6)[Gal(b1-4)GlcNAc(b1-3)Gal(b1-4)GlcNAc(b1-3)Gal(b1-4)GlcNAc(b1-3)Gal(b1-4)GlcNAc(b1-2)Man(a1-3)]Man(b1-4)GlcNAc(b1-4)[Fuc(a1-6)]GlcNAc
# Summary of the method: as §1
# [7] = molecular target: Gal(b1-4)GlcNAc(b1-3)Gal(b1-4)GlcNAc(b1-3)Gal(b1-4)GlcNAc(b1-3)Gal(b1-4)GlcNAc(b1-3)Gal(b1-4)GlcNAc(b1-2)Man(a1-3)[Gal(b1-4)GlcNAc(b1-3)Gal(b1-4)GlcNAc(b1-3)Gal(b1-4)GlcNAc(b1-3)Gal(b1-4)GlcNAc(b1-3)Gal(b1-4)GlcNAc(b1-2)Man(a1-6)]Man(b1-4)GlcNAc(b1-4)GlcNAc
# Summary of the method: as §1
# [8] = molecular target: Gal(b1-4)GlcNAc(b1-3)Gal(b1-4)GlcNAc(b1-3)Gal(b1-4)GlcNAc(b1-3)Gal(b1-4)GlcNAc(b1-3)Gal(b1-4)GlcNAc(b1-2)Man(a1-3)[Gal(b1-4)GlcNAc(b1-3)Gal(b1-4)GlcNAc(b1-3)Gal(b1-4)GlcNAc(b1-3)Gal(b1-4)GlcNAc(b1-3)Gal(b1-4)GlcNAc(b1-2)Man(a1-6)]Man(b1-4)GlcNAc(b1-4)[Fuc(a1-6)]GlcNAc
# Summary of the method: as §1
# [9] = molecular target: Gal(b1-4)GlcNAc(b1-3)Gal(b1-4)GlcNAc(b1-3)Gal(b1-4)GlcNAc(b1-3)Gal(b1-4)GlcNAc(b1-3)Gal(b1-4)GlcNAc(b1-2)[Gal(b1-4)GlcNAc(b1-3)Gal(b1-4)GlcNAc(b1-3)Gal(b1-4)GlcNAc(b1-3)Gal(b1-4)GlcNAc(b1-3)Gal(b1-4)GlcNAc(b1-6)]Man(a1-6)[Gal(b1-4)GlcNAc(b1-3)Gal(b1-4)GlcNAc(b1-3)Gal(b1-4)GlcNAc(b1-3)Gal(b1-4)GlcNAc(b1-3)Gal(b1-4)GlcNAc(b1-2)Man(a1-3)]Man(b1-4)GlcNAc(b1-4)[Fuc(a1-6)]GlcNAc
# Summary of the method: as §1
# [10] = molecular target: Gal(b1-4)GlcNAc(b1-3)Gal(b1-4)GlcNAc(b1-3)Gal(b1-4)GlcNAc(b1-3)Gal(b1-4)GlcNAc(b1-3)Gal(b1-4)GlcNAc(b1-3)Gal(b1-4)GlcNAc(b1-2)Man(a1-3)[Gal(b1-4)GlcNAc(b1-3)Gal(b1-4)GlcNAc(b1-3)Gal(b1-4)GlcNAc(b1-3)Gal(b1-4)GlcNAc(b1-3)Gal(b1-4)GlcNAc(b1-3)Gal(b1-4)GlcNAc(b1-2)Man(a1-6)]Man(b1-4)GlcNAc(b1-4)GlcNAc
# Summary of the method: as §1
# [11] = molecular target: Gal(b1-4)GlcNAc(b1-3)Gal(b1-4)GlcNAc(b1-3)GalNAc
# Summary of the method: as §1
# [12] = molecular target: Gal(b1-4)GlcNAc(b1-3)Gal(b1-4)GlcNAc(b1-3)[Gal(b1-4)GlcNAc(b1-3)Gal(b1-4)GlcNAc(b1-6)]GalNAc
# Summary of the method: as §1
# [13] = molecular target: Gal(b1-4)GlcNAc(b1-3)Gal(b1-4)GlcNAc(b1-6)[Gal(b1-3)]GalNAc
# Summary of the method: as §1
# [14] = molecular target: Gal(b1-4)GlcNAc(b1-3)Gal(b1-4)[Fuc(a1-3)]GlcNAc(b1-3)Gal(b1-4)[Fuc(a1-3)]GlcNAc
# Summary of the method: as §1
# [15] = molecular target: Gal(b1-4)GlcNAc(b1-3)GalNAc
# Summary of the method: as §1
# [16] = molecular target: Gal(b1-4)GlcNAc(b1-3)[Fuc(a1-3)GlcNAc(b1-6)]Gal(b1-4)Glc
# Summary of the method: as §1
# [17] = molecular target: Gal(b1-4)GlcNAc(b1-3)[Gal(b1-4)GlcNAc(b1-6)]Gal(b1-4)GlcNAc
# Summary of the method: as §1
# [18] = molecular target: Gal(b1-4)GlcNAc(b1-3)[GlcNAc(b1-6)]Gal(b1-4)GlcNAc
# Summary of the method: as §1
# [19] = molecular target: Gal(b1-4)GlcNAc(b1-6)Gal(b1-4)GlcNAc
# Summary of the method: as §1
binder,measurement,setting,value
PX9937B-bvu-524-33-524 (Bacteroides vulgatus) (protein) GTAYWKNPDQFTAFNTGLHALLREKSYNFFLLGEPRADIYGDNPIGGEASQGMERLPFNTINKENVGISNYGDMYKIINQINQMIAKTTETTILTEATQNYYLGEAYGMRAYLYFHLLRSWGDVVLYLDYTEGQNLDLSNITKGVSPATEVMEQIKKDIQASENAFGSDYSFKLGRHFWSAAATQMLKGEAYLWSGRQMNGGNSDYTIAKNAFENVKKADVGLVTSSFKDIFSFENKKNKEMIFTIHNGKDEYEMWGGYYRMRLIPAQDKMVKIYCDENGNSFVGTPDAQLNGLTQLQVRREFYFKGFRNNDTRWTTSLKAVYKKDAQGVVSYFGPITYKFQGTMLEGGSTRSFLDDFPIYRYADCLLQLAMAKVLLGEDPTEEINAVRERAYGSKYFNEHKAEIAYPNDNDPEFYTDNKWMKPDNAGALEAILKERLREFMFEGKRWYDIRLLGWDYVHQYSSAEQSRLLWPIDAGTLTNNSALKQTPGYE,glycan array binding signal (z-score),[1],1.42
same,glycan array binding signal (z-score),[2],2.54
same,glycan array binding signal (z-score),[3],-0.069
same,glycan array binding signal (z-score),[4],1.49
same,glycan array binding signal (z-score),[5],1.61
same,glycan array binding signal (z-score),[6],0.204
same,glycan array binding signal (z-score),[7],8.61
same,glycan array binding signal (z-score),[8],1.41
same,glycan array binding signal (z-score),[9],1.71
same,glycan array binding signal (z-score),[10],0.187
same,glycan array binding signal (z-score),[11],0.009
same,glycan array binding signal (z-score),[12],0.138
same,glycan array binding signal (z-score),[13],3.08
same,glycan array binding signal (z-score),[14],-0.404
same,glycan array binding signal (z-score),[15],-0.259
same,glycan array binding signal (z-score),[16],-0.272
same,glycan array binding signal (z-score),[17],-0.356
same,glycan array binding signal (z-score),[18],-0.224
same,glycan array binding signal (z-score),[19],-0.538
